Data reported in patent publication US10183009B2, “Therapeutic compounds and uses thereof” (GENENTECH, INC., priority 2014, dated 2019).

Assays:
[1] = biological target: CECR2 (Homo sapiens (Human), UniProt Q9BXF3); experiment: CECR2 TR-FRET Binding Assay
Description: IC50 Measurements for Inhibitors Using CECR2 TR-FRET Binding Assay
His/Flag epitope tagged CECR2424-538 was cloned, expressed, and purified to homogeneity.

[2] = biological target: TAF1-BD2 (Homo sapiens (Human), UniProt P21675); experiment: TAF1-BD2 TR-FRET Binding Assay; details: Assay: TAF-1

Structure (SMILES)	IC50 [1] [nM]	IC50 [2] [nM]
C/C=C/Cn1cc(-c2ccc(C(=O)N(C)C)cc2)c2cc[nH]c2c1=O [Example 36, 4-[6-[(E)-but-2-enyl]-7-oxo-1H-pyrrolo[2,3-c]pyridin-4-yl]-N,N-dimethyl-benzamide]	5700	
C=CCCn1cc(-c2cc(F)cc(C(=O)N3CCOCC3C)c2)c2cc[nH]c2c1=O (stereo not drawn) [Example 49, 6-but-3-enyl-4-[3-fluoro-5-(3-methylmorpholine-4-carbonyl)phenyl]-1H-pyrrolo[2,3-c]pyridin-7-one]		19
C=CCCn1cc(-c2ccc(F)c(C(=O)N3CCOCC3)c2)c2cc(C)[nH]c2c1=O [Example 97, 6-but-3-enyl-4-[4-fluoro-3-(morpholine-4-carbonyl)phenyl]-2-methyl-1H-pyrrolo[2,3-c]pyridin-7-one]		11
C/C=C/Cn1cc(-c2ccc(C(=O)N3CCCC3)cc2)c2cc[nH]c2c1=O [Example 33, 6-[(E)-but-2-enyl]-4-[4-(pyrrolidine-1-carbonyl)phenyl]-1H-pyrrolo[2,3-c]pyridin-7-one]	3500	
C=CCCn1cc(-c2cccc(-c3nnc(C)o3)c2)c2cc[nH]c2c1=O [Example 18, 6-but-3-enyl-4-[3-(5-methyl-1,3,4-oxadiazol-2-yl)phenyl]-1H-pyrrolo[2,3-c]pyridin-7-one]		95
C=CCCn1cc(-c2ccc(Cl)c(C(=O)N3CCOCC3)c2)c2cc(C)[nH]c2c1=O [Example 89, 6-but-3-enyl-4-[4-chloro-3-(morpholine-4-carbonyl)phenyl]-2-methyl-1H-pyrrolo[2,3-c]pyridin-7-one]		12
C=CCn1cc(-c2cccc(C(=O)N(C)C)c2)c2cc[nH]c2c1=O [Example 1, 3-(6-allyl-7-oxo-1H-pyrrolo[2,3-c]pyridin-4-yl)-N,N-dimethyl-benzamide]	390	
C/C=C/Cn1cc(-c2ccc(C(=O)N3CCN(C)CC3)cc2)c2cc[nH]c2c1=O [Example 21, 6-[(E)-but-2-enyl]-4-[4-(4-methylpiperazine-1-carbonyl)phenyl]-1H-pyrrolo[2,3-c]pyridin-7-one]	3300	
C/C=C/Cn1cc(-c2ccc(C(N)=O)c(Cl)c2)c2cc[nH]c2c1=O [Example 44, 4-[6-[(E)-but-2-enyl]-7-oxo-1H-pyrrolo[2,3-c]pyridin-4-yl]-2-chloro-benzamide]		1600
